# ± gives the standard deviation of the averaged measurements. Over roughly 33,000 sequences, “E-score (dimensionless, -0.5 to 0.5)” has its median near -0.049; the highest 2% begin near 0.37. The list shows a part of the results.
# Tested on: T1, PmTbr T-box DNA-binding domain (GST fusion)
# T1 sequence: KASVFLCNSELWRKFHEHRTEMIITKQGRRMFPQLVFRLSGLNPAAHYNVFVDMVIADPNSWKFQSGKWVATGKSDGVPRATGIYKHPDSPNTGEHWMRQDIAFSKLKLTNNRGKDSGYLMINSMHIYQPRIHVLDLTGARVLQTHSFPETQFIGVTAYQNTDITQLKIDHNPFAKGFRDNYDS
# Experiment: PBM E-score of 8-mer (E-score (dimensionless, -0.5 to 0.5)); Tbr is Tbrain of the sea star Patiria miniata (Pm) or the sea urchin Strongylocentrotus purpuratus (Sp); higher = stronger binding preference; most listed sequences are background and not binding sites
# Details: the construct has about 5 more residues each side
# Procedure, shortened: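 Using the Universal PBM Analysis Suite, every ungapped 8-mer received an enrichment E-score averaged over duplicate arrays. Probe intensities came from double-stranded Universal Agilent oligonucleotide arrays incubated with 200 nM GST-fused Tbr T-box DNA-binding domain in PBS (pH 7.5). That protein was expressed in BL21 E. coli at 20 °C and purified by glutathione affinity chromatography.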
row,Sequence,PBM E-score of 8-mer
1,CTTGGCGA,0.0849 ± 0.04
2,AAGAGCTA,-0.27 ± 0.011
3,AGACCAAC,-0.00326 ± 0.023
4,CAAGGATG,-0.288 ± 0.0063
5,CTACATAA,-0.139 ± 0.01
6,GTTGCAAC,0.095 ± 0.039
7,CATAGGCC,-0.156 ± 0.031
8,CCTGGAGC,-0.11 ± 0.017
9,ACTATTAC,-0.12 ± 0.025
10,TATAACCA,-0.109 ± 0.057
11,CTAAAGTC,-0.0791 ± 0.19
12,ACGGCCGG,-0.0494 ± 0.051
13,TAAGCGAA,-0.0711 ± 0.04
14,AATCTTGC,-0.0897 ± 0.1
15,ACATTTGA,0.038 ± 0.044
16,GTCAGCAA,0.0448 ± 0.033
17,ACCATCGA,-0.0672 ± 0.057
18,AGCCATTA,-0.18 ± 0.022
19,ACACGTTC,0.337 ± 0.013
20,TGACATCA,0.0708 ± 0.043
21,AAGAAACC,-0.194 ± 0.046
22,TAATTAGA,-0.233 ± 0.033

row,Sequence,PBM E-score of 8-mer
1,AATGCCGG,-0.122 ± 0.0097
2,TAACCGTA,-0.131 ± 0.015
3,GGACCCAA,-0.121 ± 0.032
4,GCTATTCA,0.0196 ± 0.074
5,ATCCAGGG,0.00813 ± 0.051
6,AGTCCGGG,-0.145 ± 0.1
7,CGTCGCCA,0.105 ± 0.018
8,CTGCCTAC,-0.225 ± 0.061
9,GCCAGCTA,-0.0583 ± 0.0056
10,CGGGTGAA,-0.316 ± 0.026
11,GGCCGGAC,-0.0922 ± 0.022
12,CCCGCGCG,0.0753 ± 0.0015
13,GAGAGAAA,0.0585 ± 0.061
14,GACTTTGC,-0.0821 ± 0.035
15,AGTATCTC,-0.13 ± 0.03
16,AAAACATA,-0.126 ± 0.014
17,GACGGATC,-0.191 ± 0.13
18,AATACGTG,0.0957 ± 0.056
19,ATTGATTG,-0.0938 ± 0.051
20,ATAAATTG,-0.147 ± 0.003
21,GCTTTAAC,-0.1 ± 0.071
22,CTAGGATA,0.0212 ± 0.018

row,Sequence,PBM E-score of 8-mer
1,ACGCTATG,-0.00382 ± 0.031
2,CCATTCCC,-0.18 ± 0.029
3,CGTGAACG,0.274 ± 0.059
4,CGTTCACC,-0.0379 ± 0.073
5,AAAACGTA,-0.115 ± 0.041
6,AATAACCT,-0.239 ± 0.034
7,AGGCATAC,-0.124 ± 0.018
8,ACATTCAA,-0.0911 ± 0.079
9,GAGTGTCC,-0.0246 ± 0.07
10,AGCTTACC,-0.294 ± 0.025
11,CCATCATA,-0.232 ± 0.0034
12,GAGGTGAC,0.4496 ± 0.0027
13,CGGAATGC,-0.173 ± 0.018
14,ACGTCACG,0.144 ± 0.03
15,AATGGCCC,-0.26 ± 0.073
16,AAAGCAGT,-0.144 ± 0.042
17,GAGACAAC,-0.0112 ± 0.012
18,CTTATCTC,0.0586 ± 0.016
19,AACGAGGG,-0.2731 ± 0.0027
20,CAGACCTG,-0.0919 ± 0.036
21,ACTCAGAA,0.0631 ± 0.058
22,AGGTTAAT,-0.147 ± 0.032

row,Sequence,PBM E-score of 8-mer
1,CCGGGACA,-0.241 ± 0.093
2,GCTGTACC,-0.115 ± 0.016
3,AAGGTGCG,0.45 ± 0.014
4,AGGATTAG,-0.247 ± 0.0091
5,CGCACGCC,0.194 ± 0.07
6,ACTCTCTG,-0.0739 ± 0.034
7,ATTTGTTC,-0.033 ± 0.05
8,GGTCGTAA,-0.104 ± 0.072
9,AACTCTTA,-0.37 ± 0.015
10,GGCCCGAC,-0.0864 ± 0.0056
11,GACATCGA,-0.0159 ± 0.0023
12,CGCACCGC,0.222 ± 0.063
13,ATCGAGGA,-0.338 ± 0.046
14,ATGTATTA,0.00739 ± 0.068
15,TACTCGCA,0.13 ± 0.0099
16,AAGCTACC,-0.144 ± 0.013
17,ACACTCAA,0.234 ± 0.017
18,GTTACGGA,-0.14526 ± 0.00014
19,ACCTGCCC,0.126 ± 0.013
20,AATGCCAA,0.114 ± 0.0042
